From PubChem BioAssay AID1461 (National Center for Advancing Translational Sciences (NCATS), 2008)
In all, about 220,000 compounds went through this assay and about 2,300 (1%) were called active. The shares of active, inactive and inconclusive entries below differ from those in the screen. Calls follow the shape of the dose curve; as a rule, active = well fitted inhibition curve with a large enough effect; inconclusive = small, poorly fitted or top-dose-only effect, or effect the other way; inactive = no such curve, though single readings can be large or run the other way. Potencies of inconclusive entries are left out as doubtful fits.
% is scaled to controls: 0 for no effect and ±100 for the full control effect; potency is read from the fitted curve at half-maximal effect; tags tell the direction and shape of the fitted curve.
Also: nearly all actives have a fitted effect of over 50% in size.

The compounds below were run against Neuropeptide S receptor (Homo sapiens) (UniProt Q6W5P4) (assay: qHTS Assay for Antagonists of the Neuropeptide S Receptor: cAMP Signal Transduction). Conditions: CHO-NPSR cells, cAMP TR-FRET, antagonist mode; activity change, negative = inhibition: at 38.3 µM (top of the series) unless noted.
Sequence of UniProt Q6W5P4 (Q6W5P4 whole entry, looked up): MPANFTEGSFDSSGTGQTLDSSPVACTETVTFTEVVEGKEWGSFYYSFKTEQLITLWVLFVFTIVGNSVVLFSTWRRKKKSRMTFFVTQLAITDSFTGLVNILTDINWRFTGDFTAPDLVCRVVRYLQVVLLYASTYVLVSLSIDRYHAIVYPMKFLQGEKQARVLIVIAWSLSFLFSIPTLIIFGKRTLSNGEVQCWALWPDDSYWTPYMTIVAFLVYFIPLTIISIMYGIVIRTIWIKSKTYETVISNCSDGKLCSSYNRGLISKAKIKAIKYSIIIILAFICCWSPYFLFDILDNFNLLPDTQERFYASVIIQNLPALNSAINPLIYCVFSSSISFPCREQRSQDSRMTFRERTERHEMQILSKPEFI
CC(C)C[C@H](NC(=O)c1[nH]cnc1C(=O)N[C@@H](C)c1ccccc1)C(=O)OCc1ccccc1 was tested, and the Potency was inconclusive [inhibitor, single point]. For COc1ccc(NC(=O)CN(C)S(=O)(=O)c2ccc3c(c2)OCCO3)c2ncccc12, the Potency was inconclusive [inhibitor, single point]. In the case of CCOC(=O)COn1c(=O)c(-c2cccs2)[n+]([O-])c2ccccc21, the “activity change, negative = inhibition” value is reported as inactive: -15.5% [at 46.1 µM]. With Cc1c(C(=O)NCCSCc2c(Cl)cccc2Cl)cccc1[N+](=O)[O-] the Potency was inconclusive [inhibitor, single point]. COc1cccc(OC)c1OCCCN1CCOCC1 was tested, and the “activity change, negative = inhibition” value was inactive: -6.02% [at 46.1 µM]. In the case of Nn1cnnc1N/N=C\c1ccc(-c2ccccc2[N+](=O)[O-])o1, the “activity change, negative = inhibition” value is reported as inactive: -17.1%. With O=C(CC1CCCCC1)N1CCCC(c2nc(-c3ccc(S(=O)(=O)N4CCCC4)cc3)no2)C1 (stereo unspecified) the Potency was inconclusive [inhibitor, partial curve]. CCc1ccccc1N(CC)C(=O)CCc1nc(-c2ccc(C)cc2)no1 was tested, and the Potency was inconclusive [inhibitor, full curve, poor fit]. CCNC(=O)CN(C1CCCCC1)S(=O)(=O)c1ccc(F)cc1 was tested, and the “activity change, negative = inhibition” value was inactive: 0.469% [at 46.1 µM]. With Cc1ccc2nc(Nc3ccccc3)c(/C=N/O)c(=O)n2c1 the “activity change, negative = inhibition” value was inactive: -11.2% [at 46.1 µM]. COc1ccc2c(c1)c1nnc(SCC(=O)N3C(C)CCCC3C)nc1n2C (stereo unspecified) was tested, and the Potency was inconclusive [inhibitor, partial curve]. With Cc1nc(C(=O)NC2CC2)sc1C1(C)CC(c2ccccc2)=NO1 (stereo unspecified) the “activity change, negative = inhibition” value was inactive: -1.46%. In the case of O=C(c1ccccc1Nc1ccc(SC(F)F)cc1)N1CCCCC1, the Potency is reported as inconclusive [inhibitor, single point]. With CC(C)(C)NC(=O)CN(C(=O)Cn1nnc(-c2ccccc2F)n1)c1cccc2c1CCCC2 the Potency was inconclusive [inhibitor, single point]. For CN(C(=O)COC(=O)CNC(=O)CNC(=O)c1ccc(Cl)cc1Cl)c1ccccc1, the “activity change, negative = inhibition” value was inactive: 7.29%. CCCCN(CC)c1nc(N)c(C#N)c(CC#N)c1C#N was tested, and the Potency was inconclusive [inhibitor, single point]. For COc1ccc(CN(C(=O)c2ccc(-c3ccccc3)[nH]2)C(C(=O)NCC2CCCO2)c2ccc(C)o2)cc1 (stereo unspecified), the Potency was inconclusive [inhibitor, partial curve]. For CC(=O)NCN1CCN(CNC(C)=O)CC1, the Potency was inconclusive [inhibitor, single point]. With CCCCNc1ccc(S(N)(=O)=O)cc1[N+](=O)[O-] the “activity change, negative = inhibition” value was inactive: 7.33%. With CCN1C(=O)/C(=C2/C(=O)N3c4c(cc(OC(C)=O)cc42)C(C)=CC3(C)C)SC1=S the “activity change, negative = inhibition” value was inactive: -17.6%. For Cc1ccc2c(N)c(C(=O)N(c3ccccc3)c3ccccc3)sc2n1, the Potency was inconclusive [inhibitor, single point]. In the case of Oc1c(Br)cc(C=Nc2ccc3nc(-c4ccccc4)[nH]c3c2)c(O)c1Br, the Potency is reported as active: 10 µM. In the case of CCS(=O)(=O)Nc1ccc(-c2cc(-c3ccccc3)c3cc(C)ccc3n2)cc1, the “activity change, negative = inhibition” value is reported as inactive: 11.6%. In the case of Cc1cc(C)n(-c2cc(N3CCN(S(=O)(=O)c4ccc5ccccc5c4)CC3)ccc2[N+](=O)[O-])n1, the “activity change, negative = inhibition” value is reported as inactive: -27.6% [at 46.1 µM]. With Cc1ccc(CNC(=O)C2CCCN(Cc3cnn(-c4ccccc4)c3-n3cccc3)C2)cc1 (stereo unspecified) the Potency was inconclusive [inhibitor, partial curve]. In the case of Cc1cc(C)cc(NCCC#N)c1, the Potency is reported as “inactive”. With Cc1ccc(S(=O)(=O)NCCOCCNS(=O)(=O)c2ccc(C)cc2)cc1 the activity change, negative = inhibition was inactive: -15.4% [at 7.67 µM]. With CCCCCc1cc(=O)oc2c(C(CCN(CC)CC)c3cc(OC)c(OC)c(OC)c3)c(OC)cc(OC)c12 (stereo unspecified) the Potency was inconclusive [inhibitor, single point]. With CC(C)CCN1CCN(Cc2nc(-c3ccc(F)cc3)cs2)CC1CCO (stereo unspecified) the “activity change, negative = inhibition” value was inactive: 10.3%. With CCc1nc(N2CCN(C(=O)c3ccco3)CC2)c2c3c(sc2n1)CCCC3 the Potency was inconclusive [inhibitor, partial curve]. In the case of Cc1ccc(-n2c(Cc3cccs3)nnc2SCC(=O)Nc2ccc(F)c(F)c2)cc1, the Potency is reported as inconclusive [inhibitor, single point]. In the case of COc1cc(/C=C2\SC(=O)N(CCN)C2=O)ccc1OS(=O)(=O)c1cc(C)ccc1C, the Potency is reported as inconclusive [inhibitor, single point]. For Cc1ccccc1OCCNc1cc(N2CC(C)NC(C)C2)ccc1[N+](=O)[O-] (stereo unspecified), the Potency was inconclusive [inhibitor, single point]. N#Cc1nc(-c2ccco2)oc1NCc1ccco1 was tested, and the Potency was inconclusive [inhibitor, partial curve]. CC(=O)N1CCc2cc(S(=O)(=O)NC(CC(C)C)C(=O)N3CCc4ccccc4C3)ccc21 (stereo unspecified) was tested, and the Potency was inconclusive [inhibitor, partial curve]. For Cc1ccc(Nc2nc(-c3ccc(S(=O)(=O)N4CCCC4)cc3)cs2)cc1C, the Potency was inconclusive [inhibitor, partial curve]. With COc1cc(CN2CC(=O)N(c3ccc(C)cc3)C2=S)cc(OC)c1OC the “activity change, negative = inhibition” value was inactive: 8.2%. O=C(NC(NNc1ccc([N+](=O)[O-])cc1)(C(F)(F)F)C(F)(F)F)c1ccc(Cl)cc1 was tested, and the Potency was inconclusive [inhibitor, single point]. CC[n+]1c(/C=C2/C=C(C)CC(C)(C)C2)sc2ccc(OC)cc21 was tested, and the Potency was inconclusive [inhibitor, single point]. In the case of COC(=O)c1ccc(C2/C(=C(/O)c3ccc(OC)cc3)C(=O)C(=O)N2Cc2ccco2)cc1 (stereo unspecified), the “activity change, negative = inhibition” value is reported as inactive: -11.1% [at 46.1 µM]. In the case of COc1ccc(N2C3=C(CC4=C2CC(C)(C)CC4=O)C(=O)CC(C)(C)C3)cc1, the Potency is reported as active: 2 µM. For Cc1cccc(CSC2=CS(=O)(=O)c3ccccc3N2)c1, the “activity change, negative = inhibition” value was inactive: 12.7% [at 46.1 µM]. S=C(Nc1ccccc1)c1ccccn1 was tested, and the Potency was active: 3.98 µM. COC(=O)c1c(NC(=O)CC2Nc3ccccc3NC2=O)sc(C)c1C (stereo unspecified) was tested, and the “activity change, negative = inhibition” value was inactive: -11.3% [at 46.1 µM]. CS(=O)(=O)Nc1cccc(C2=NN(S(=O)(=O)c3ccccc3)C(c3cccs3)C2)c1 (stereo unspecified) was tested, and the Potency was inconclusive [inhibitor, single point]. In the case of Cc1nc(Nc2cccc(C(C)O)c2)c2nnn(Cc3ccccc3F)c2n1 (stereo unspecified), the “activity change, negative = inhibition” value is reported as inactive: 37.4%.
